Results as given in article PMC12136788.
This is one part of the list.

B1: chr1:63797873:63797874:+_ENSMUSG00000025962_ENSMUST00000128621|mus_mus|FALSE|FALSE (ssRNA)
RNA: GGGAGUUCUACAGUCCGACGAUCAUCCUCUGGGGUGGCAUGAAUUUAAACAGUAAACAGACUUAGGAACACACAGCACUGCUACUCUCUGCAUGUUUGUGGCAGAACUUGCAUCUACAUCAGAAAAUGAAAAUACUUGGGUCCCAACAGAGGAUUGAGCAUCA
B2: chr8:24049560:24049561:+_ENSMUSG00000031540_ENSMUST00000044331|mus_mus|motif|central (ssRNA)
RNA: GGGAGUUCUACAGUCCGACGAUCGCUGUUGACAGAGCGGACUGACUGGCUAGGAUGAGACGGAAUGGAGGAUAUCGGGCGGUUAUGCUCUGAAGCAUGACAGUCUUCAACCAUUGACAUCUGGGGGUCCUCAUCAGUGUGGGUCAACAGAGGAUUGAGCAUCA
B3: chr17:64801638:64801639:+_ENSG00000154229_ENST00000413366|hu_mus|hu_hu_hu_mus_False|1_28 (ssRNA)
RNA: GGGAGUUCUACAGUCCGACGAUCUAUAUAUAUAUAUACAUAUGUACACAUAUAUAGUAAAACCCUAGUUAAACGUGUAAAGUAGCCAUUCAUUUUUAAAAUUACAUCUACAUUUAAAAAUUAAUAUAUCUGAUAGAGUGCCCACAACAGAGGAUUGAGCAUCA
B4: chr12:36742118:36742119:-_ENSMUSG00000020577_ENSMUST00000020896|mus_hu|FALSE|FALSE (ssRNA)
RNA: GGGAGUUCUACAGUCCGACGAUCAGGUGCCACCGAGCUUCAGAGACCACAAGUUUCAAAUAUUUUUCAGCAACGGAAAGAAAAAAACAUGUAGAGAAACAUAGAGUAAAAAUAUAUAAUUCCACUAUCAAUAAGGUACUUUUCCAACAGAGGAUUGAGCAUCA
B5: chr15:35867035:35867036:-_ENSMUSG00000014313_ENSMUST00000014457|mus_mus|motif|central (ssRNA)
RNA: GGGAGUUCUACAGUCCGACGAUCAGAAGACCACGCAUCUGUGGUUUGGGCAACAGCGCACCGGAACUCAUGGUAGCCAAUGUCCUCGGCACCAACGUCCUUCCCGGUUCUCGGAGAAACGGAGAGCCUUCCAGCAGCACGCAUCAACAGAGGAUUGAGCAUCA
B6: chr6:41757443:41757444:+_ENSG00000214736_ENST00000398881|hu_mus|hu_hu_hu_mus_False|8_68 (ssRNA)
RNA: GGGAGUUCUACAGUCCGACGAUCGAACCGUGCAGAGGCAACAUCUCAGCCGACACUGGGGGAUGGGGGAACAAAAGGGGGGGGUUCAGGCAAGGAGAGGGAGUCAACUUCAGCUGCCACUCAGGUAGCUGCCAUCAGUCACAGCAACAGAGGAUUGAGCAUCA
B7: chr16:13835293:13835294:+_ENSMUSG00000022681_ENSMUST00000136618|mus_mus|FALSE|FALSE (ssRNA)
RNA: GGGAGUUCUACAGUCCGACGAUCAGGAAAGAGUAUAUUCUCUGGAGAUGGGAAUUUUUUUAAAAACAUCAAGGUAGAUCUAAUAUGUUCAACAAAGUGGGGGGGCUCGGCCAGAGGAGACGUGGAAAGGCUCUCUAGGAUUUGCAACAGAGGAUUGAGCAUCA
B8: 142103422_142116185_2502_3pUTR_ENSG00000114127_ENST00000264951|human|control|control (ssRNA)
RNA: GGGAGUUCUACAGUCCGACGAUCCGAACUUCACCAUUUUGAUUUAUUUGAUAUUUACGACCUGUGAGUAACUGAGCAUACACAACUGCAGAUGUUUCAUUUAUUAUUAUUCCUUUUCUUCUCAGGUAGUGUUCUGAAAUUCCUCAACAGAGGAUUGAGCAUCA
B9: chr17:65740002:65740003:+_ENSG00000130935_ENST00000581375|hu_hu|hu_hu_hu_mus_False|1_28 (ssRNA)
RNA: GGGAGUUCUACAGUCCGACGAUCAACAAAUCUUUCUUCCCUGGACGAACAGGAAGAUUCAUAUUAAAAAAAAUAUAUAUCCAUCAAGUUAGGUGUGGUGGCCACACAGAGCUCCAGAGCACUUUGGGAGGUGGAUCCUCUAUUCAACAGAGGAUUGAGCAUCA
B10: chr5:128448638:128448639:+_ENSG00000066583_ENST00000173527|hu_mus|hu_hu_hu_mus_False|8_68 (ssRNA)
RNA: GGGAGUUCUACAGUCCGACGAUCGGCACUCGCCUUAAUUAGGUUCUGAAUUUCCUUGAACUUCGGGUGGUCCUUAUCAGCCACCAGCUGUAGGAGGACAGCCUCACUAGUGGUCACGAUGAUCCCAGUUCGAGCGAGACGCUCCAACAGAGGAUUGAGCAUCA
B11: chr14:103803487:103803488:+_ENSG00000100664_ENST00000558506|hu_mus|hu_hu_hu_mus_True|28_78 (ssRNA)
RNA: GGGAGUUCUACAGUCCGACGAUCGAGUUUAUGAUGUGUGUCAAGCAUGCCUCGGUAGCCACAGGCUUUACAAGAAUUACCUAUUGUUUGCUUCUUUGGAUUGACAUGCAAAUCUGUUUCAGGAUUCUCACACUCAGGACAGAGCAACAGAGGAUUGAGCAUCA
B12: 59406787_59410403_2143_CDS_ENSG00000166889_ENST00000300146|human|control|control (ssRNA)
RNA: GGGAGUUCUACAGUCCGACGAUCUGUAGCAGGGUCUGAACUCUGUAGGUCUUCACCACGGCUCAGGAGGAUGAGGAGCAGUGACAGGCCAAACUUGUUCUGGAGCACAGCAGUGAGGUGAGGAUUGGAGAGUGCUGGUGUAGCCAACAGAGGAUUGAGCAUCA
B13: chr8:34730120:34730121:+_ENSMUSG00000009630_ENSMUST00000009774|mus_mus|FALSE|FALSE (ssRNA)
RNA: GGGAGUUCUACAGUCCGACGAUCACAGUAAUUUAGUUUAGGAAACUUUAAAGGAAAUCUCUUUAAUGUUAUGACAACAUACUCCCAAGAAUCUCUUCUUCAGUUAGUCAUACAUUUCAAUAAAAUAAAGGAUUAUGAAUUGAACAACAGAGGAUUGAGCAUCA
B14: chr2:155973683:155973684:-_ENSMUSG00000027620_ENSMUST00000109587|mus_hu|FALSE|FALSE (ssRNA)
RNA: GGGAGUUCUACAGUCCGACGAUCCAUGAACAUUUUAAAAGGCAGAACAAGAGAACAGUUUUGUAUACAGUGGGAUUUACUAUUUAGGGAGAAUGAGCACACUGCAUUCCUGUUAACAUUUUUAUUUUUUCAAGGUAACAGGAACAACAGAGGAUUGAGCAUCA
B15: chr2:168997265:168997266:-_ENSG00000198648_ENST00000355999|hu_mus|FALSE|FALSE (ssRNA)
RNA: GGGAGUUCUACAGUCCGACGAUCUUUAUUCCGUGUAACAUCACCCCCUGUGGCUAAGAAUGCGCUUACUCCAAAAUCUGCUAUUUGUACUGAGCCAUCCUCACCCAGAAGAAUAUUUCCAGCUUUCAAAUCCCUAUGGAUCUGCAACAGAGGAUUGAGCAUCA
B16: chr5:143849297:143849298:-_ENSMUSG00000045078_ENSMUST00000053498|mus_hu|motif|central (ssRNA)
RNA: GGGAGUUCUACAGUCCGACGAUCUACAUUCAGAUCAUAAUAAUUCUUAAAAUGAAUUAUUUCCUCAAUAAACCCAUUUGCGGCAUCUGGAAAUCUUGCUUCCGUUUCUUUCACUAGUAGUUCAACGAGCUCUUGAUCUACCUCCAACAGAGGAUUGAGCAUCA
B17: chr5:76988818:76988819:+_ENSMUSG00000036435_ENSMUST00000113493|mus_hu|FALSE|FALSE (ssRNA)
RNA: GGGAGUUCUACAGUCCGACGAUCUCCAUCCAGGUCCUCUGCUUCAGCCAUAGUUCCAGGCAUACUUUGAUGUUGCUGUAGUUUGAAAAAUUUACUUAUGAAGUCCUGUUCUGCCAGACAUAGGGGCUCCAGUUCACUUAGUACCAACAGAGGAUUGAGCAUCA
B18: chr17:57759754:57759755:+_ENSG00000141367_ENST00000269122|hu_mus|FALSE|FALSE (ssRNA)
RNA: GGGAGUUCUACAGUCCGACGAUCAUCAUAACAACGGUCACCAACUUGCUGAAUAUGAGCAUUAUUUGGCCCAUUGAUGAACUCUUCUAAUUCUGCAAGGCGGUUUGUUUUAGCCAGUGCAAAUAUCAAUUCUGUCUCCACAUACAACAGAGGAUUGAGCAUCA
B19: chr2:217001844:217001845:+_ENSG00000079246_ENST00000392132|hu_mus|FALSE|FALSE (ssRNA)
RNA: GGGAGUUCUACAGUCCGACGAUCACCAACUUGAGGAUUAGAUCUUUUGUCAUAAGCAUAUCGGACGAUGGCGACCAUGUUUAACUCAUCCAAAGCAUGAACGAGAGAGGAAAGGGCAACAGCUGCCGCCUCAUCAUCCUUUGCCAACAGAGGAUUGAGCAUCA
B20: chr2:48026839:48026840:+_ENSG00000116062_ENST00000540021|hu_hu|hu_hu_hu_mus_False|1_68 (ssRNA)
RNA: GGGAGUUCUACAGUCCGACGAUCAUAGUGAGCCACUAGCGUCCUAAAUCUGGAACAGUGGCGGUCAUCUGAAAACUGGCCGAUGAAAAACUUGCCCAGUGAAGUGUCCACAAAGCAAACACCAUACACACGAGUGUGGCCAGACAACAGAGGAUUGAGCAUCA
B21: 64816808_64818420_1693_CDS_ENSG00000184575_ENST00000332707|human|control|control (ssRNA)
RNA: GGGAGUUCUACAGUCCGACGAUCCAGUUGUUUUCUAUAUUCUACAAACAUGGCUUCAUCUUCACCCUCAUUUUCAAAGUUAUAUUCUUCAUCGUAAGUCAAUUUUUUCAUAACGGCCAACAUGAUUGCCUCUACAUUAGCUUUCAACAGAGGAUUGAGCAUCA
B22: chr6:124696998:124696999:-_ENSMUSG00000004263_ENSMUST00000088357|mus_hu|FALSE|FALSE (ssRNA)
RNA: GGGAGUUCUACAGUCCGACGAUCAGCCUGGGAUGGGAGAGAAGGCUGAGUAUACUUGGGGGGCUGAUUGGAGACAGAGAGGCUUGUUGGGGGAGGGAAAGAGUGGGGGUAGCUGGGCAAUGCCUGGGAAGCUGGGAAGGGGGACAACAGAGGAUUGAGCAUCA

molecular target: T1, UNK ZnF1-3 (human, UniProt Q9C0B0 31-174); assay: nsRBNS (natural sequence RNA bind-n-seq); RBNS binding buffer (assumed for nsRBNS): 25 mM Tris pH 7.5, 150 mM KCl, 3 mM MgCl2, 0.01% Triton X-100, 500 ug/ml BSA, 20 U/ml SUPERase-In, 4 C; UNK is unkempt and MSI1 is Musashi-1; names of the RNAs are library labels; protein concentration not given here; high values mean tight binding
T1 sequence: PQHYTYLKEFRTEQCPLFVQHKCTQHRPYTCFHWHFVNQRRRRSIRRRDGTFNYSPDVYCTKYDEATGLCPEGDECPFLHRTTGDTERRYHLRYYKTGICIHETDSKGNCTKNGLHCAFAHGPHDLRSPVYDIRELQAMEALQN

Question: With B1 as the binder, how does the binding signal read?
Answer: The binding signal was 1.27 enrichment R.

Question: With B2 as the binder, how does the binding signal read?
Answer: The binding signal was 1.13 enrichment R.

Question: B3 was tested. Which binding signal did it give?
Answer: The binding signal was 1.65 enrichment R.

Question: For B4, which binding signal is on record?
Answer: The binding signal was 1.98 enrichment R.

Question: With B5 as the binder, how does the binding signal read?
Answer: The binding signal was 0.913 enrichment R.

Question: How did the binding signal turn out when B6 was run?
Answer: Its binding signal is 2.9 enrichment R.

Question: How did the binding signal turn out when B7 was run?
Answer: Its binding signal is 2.27 enrichment R.

Question: B8 was tested. Which binding signal did it give?
Answer: Its binding signal is 1.25 enrichment R.

Question: How did the binding signal turn out when B9 was run?
Answer: Its binding signal is 1.93 enrichment R.

Question: With B10 as the binder, how does the binding signal read?
Answer: The binding signal was 0.631 enrichment R.

Question: How did the binding signal turn out when B11 was run?
Answer: Its binding signal is 1.17 enrichment R.

Question: For B12, which binding signal is on record?
Answer: The binding signal was 1.49 enrichment R.

Question: With B13 as the binder, how does the binding signal read?
Answer: The binding signal was 0.783 enrichment R.

Question: How did the binding signal turn out when B14 was run?
Answer: The binding signal was 1.22 enrichment R.

Question: With B15 as the binder, how does the binding signal read?
Answer: Its binding signal is 0.945 enrichment R.

Question: Which binding signal does the source give for B16 here?
Answer: Its binding signal is 0.696 enrichment R.

Question: Which binding signal does the source give for B17 here?
Answer: Its binding signal is 1.24 enrichment R.

Question: With B18 as the binder, how does the binding signal read?
Answer: The binding signal was 0.871 enrichment R.

Question: How did the binding signal turn out when B19 was run?
Answer: Its binding signal is 1.94 enrichment R.

Question: For B20, which binding signal is on record?
Answer: Its binding signal is 1.06 enrichment R.

Question: How did the binding signal turn out when B21 was run?
Answer: The binding signal was 0.852 enrichment R.

Question: How did the binding signal turn out when B22 was run?
Answer: The binding signal was 2.86 enrichment R.
